# Measurements: paper PMC4336329 (PLoS ONE, 2015)
# Screen size: about 310,000 compounds; about 2,200 (0.71%) showed an effect of 50% or more. The effect is printed as a negative number. This is one part of the list.
# Target: human ether-à-go-go-related gene (hERG) potassium channel (human, UniProt Q12809)
# Experiment: primary screen, population patch clamp on CHO cells stably expressing hERG
# human ether-à-go-go-related gene (hERG) potassium channel, sequence (Q12809 whole entry, looked up): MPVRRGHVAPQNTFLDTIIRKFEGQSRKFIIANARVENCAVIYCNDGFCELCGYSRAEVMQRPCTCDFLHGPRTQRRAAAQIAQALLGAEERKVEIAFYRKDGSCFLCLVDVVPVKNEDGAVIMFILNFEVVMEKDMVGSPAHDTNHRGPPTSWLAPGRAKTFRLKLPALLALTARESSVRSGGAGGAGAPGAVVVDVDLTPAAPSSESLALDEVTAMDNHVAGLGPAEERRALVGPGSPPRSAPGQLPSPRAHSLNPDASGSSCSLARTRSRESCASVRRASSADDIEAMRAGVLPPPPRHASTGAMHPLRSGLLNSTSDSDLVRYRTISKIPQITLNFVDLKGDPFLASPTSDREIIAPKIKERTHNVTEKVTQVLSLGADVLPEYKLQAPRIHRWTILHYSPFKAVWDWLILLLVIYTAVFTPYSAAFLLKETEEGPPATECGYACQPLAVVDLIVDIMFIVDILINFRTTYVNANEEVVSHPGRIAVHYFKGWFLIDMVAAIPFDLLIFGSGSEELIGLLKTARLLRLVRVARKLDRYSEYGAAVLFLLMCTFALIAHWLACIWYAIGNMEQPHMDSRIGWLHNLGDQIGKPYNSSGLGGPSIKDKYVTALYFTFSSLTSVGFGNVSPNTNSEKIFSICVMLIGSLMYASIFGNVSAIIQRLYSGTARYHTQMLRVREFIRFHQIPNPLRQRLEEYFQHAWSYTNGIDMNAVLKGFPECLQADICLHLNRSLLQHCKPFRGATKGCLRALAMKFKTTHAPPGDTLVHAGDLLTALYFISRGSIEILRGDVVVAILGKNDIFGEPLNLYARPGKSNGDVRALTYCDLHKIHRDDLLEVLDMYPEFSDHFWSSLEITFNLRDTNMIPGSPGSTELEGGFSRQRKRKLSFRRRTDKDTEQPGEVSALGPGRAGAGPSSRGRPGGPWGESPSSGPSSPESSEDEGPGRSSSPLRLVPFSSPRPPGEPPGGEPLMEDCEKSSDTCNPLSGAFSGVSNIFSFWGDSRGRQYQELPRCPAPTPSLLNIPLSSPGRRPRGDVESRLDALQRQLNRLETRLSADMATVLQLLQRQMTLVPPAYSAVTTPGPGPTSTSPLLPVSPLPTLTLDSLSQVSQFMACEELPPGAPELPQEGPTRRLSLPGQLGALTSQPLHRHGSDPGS
row,Structure (SMILES),"hERG current change (%, negative = inhibition) at 1uM [%]"
1,O=C(CCNS(=O)(=O)c1ccc(Br)s1)Nc1ccc(Cl)cc1,2.75
2,Cc1ccc(-c2cc(-c3cccs3)[nH]n2)c(O)c1,6.98
3,O=C(CCc1ccncc1)N1CCCC(Nc2ccc(F)cc2)C1 (stereo not shown),4.5
4,COc1ccc(OCCSc2nnc(C(C)NC(=O)c3ccccc3F)n2C)cc1 (stereo not shown),3.22
5,O=C(Nc1ccccc1NC(=O)c1ccco1)c1ccccc1,10.9
6,Cc1cc(C)nc(SCc2ccc([N+](=O)[O-])cc2)n1,6.29
7,COc1cccc(NC(=O)CN(C)C(=O)c2c(C)nn(CC(C)C)c2Cl)c1,12.6
8,C=CCN1C(=O)/C(=C/c2ccccc2)S/C1=N/c1nccs1,5.36
9,O=C(C1=C[C@H](c2ccc(Br)cc2)C[C@H](OCc2ccc(CO)cc2)O1)N1CCOCC1,-1.15
10,O=C(NCc1ccccn1)c1ccc(Cl)c(S(=O)(=O)NCc2ccccc2)c1,0.792
11,O=C(CCCN1C(=O)/C(=C/c2cccc(Br)c2)SC1=S)N1CCOCC1,14.5
12,O=S1(=O)N=C(c2ccccc2)c2ccccc21,10.2
13,CC1(C)CC(=O)C2=C(C1)N(CCN1CCOCC1)C1=C(C(=O)CC(C)(C)C1)C2c1cccc(F)c1,-7.98
14,CC(C)(C)C(=O)Nc1ccc(C(=O)NNC(=O)c2ccccc2)cc1,6.81
15,Cc1cccc(C(=O)OCC(=O)Nc2sc3c(c2C#N)CCC3)c1,12.3
16,COc1nc(-c2ccccc2)nc(C)c1CC(=O)O,8.43
17,Cc1c(NS(=O)(=O)c2ccc3c(c2)Cc2ccccc2-3)c(=O)n(-c2ccccc2)n1C,8.38
18,CC12CCC(C(=O)NCc3ccc4c(c3)OCO4)(C(=O)C1=O)C2(C)C (stereo not shown),3.57
19,O=C(Cn1nnc2ccccc21)c1ccc(Cl)cc1,9
20,Cc1csc(NC(=O)c2cc(C)oc2C)n1,4.97

row,Structure (SMILES),"hERG current change (%, negative = inhibition) at 1uM [%]"
1,O=C(Nc1sc2c(c1C(=O)O)CCCCC2)c1ccco1,-5.14
2,Cc1ccnc(SCc2cc(=O)c(OC(=O)c3cc([N+](=O)[O-])ccc3Cl)co2)n1,11
3,O=S(=O)(c1ccc(Cl)c(NC(=S)Nc2cccc(O)c2)c1)N1CCOCC1,9.86
4,CCO/C=N/c1c(C#N)c(CC#N)nn1-c1ccccc1,-0.468
5,Cc1cc2c(cc1S(=O)(=O)N1CCN(c3ccccc3F)CC1)OCC(=O)N2,16.4
6,O=c1cc(CNc2ccc(Br)cc2)nc2sccn12,4.46
7,COc1ccc(CNC(=O)CN=C2NC(=O)C(c3ccccc3)(c3ccccc3)N2)cc1,7.17
8,Cc1nn(C)c(C(=O)NNC(=S)Nc2ccc(F)cc2)c1[N+](=O)[O-],-1.23
9,O=C(O)c1cccc(C(=O)Cc2ccccc2)c1,11.9
10,CCc1cccc(CC)c1N(COC)C(=O)Cn1ccccc1=N.Cl,11.4
11,O=C(CSc1nnc(CNC(=O)c2cccs2)o1)Nc1ccc(Br)cc1,7.23
12,COc1ccccc1N1CCN(C(=O)CSc2nc3ncnc(N)c3[nH]2)CC1,18.6
13,COc1cccc(C(=O)O/N=C(\N)c2ccncc2)c1,6.82
14,Cc1csc(NC(=O)CSc2ncn(-c3ccccc3)n2)n1,10.8
15,Cc1[nH]c2ccccc2c1Cc1nnc(SCC(=O)NCc2ccco2)o1,8.95
16,O=C(Nc1cccc(F)c1)c1ccc(S(=O)(=O)N2CCOCC2)cc1,11.2
17,Cc1onc(-c2ccccc2)c1C(=O)n1cc(Br)cn1,-6.43
18,COc1cc(C(=S)N2CCC(C)CC2)ccc1O,13.7
19,O=C(NCc1ccccc1)C1(C(F)(F)F)CC(CCCO)CCCO1 (stereo not shown),4.32
20,CC(=O)Nc1ccc(-c2csc(NNC(=O)c3ccc(C)cc3)n2)cc1,8.91

row,Structure (SMILES),"hERG current change (%, negative = inhibition) at 1uM [%]"
1,COc1ccc(OC)c(NC(=O)CSc2nnc(Cn3nnc4ccccc43)n2C)c1,0.886
2,Cl.O=C(NC1CCCCC1)N1CCNCC1,14.6
3,COc1ccc(C(=O)Nc2nnc(C3=COCCO3)o2)cc1OC,18.9
4,CNC(C)(C)Cc1ccccc1.O=S(=O)(O)O,13.1
5,CCCNc1nc2ccccc2n2c(C)nnc12,7.57
6,Cc1ccc(C(C)C)c(OCCCN2CCc3ccccc3C2)c1.Cl,-14.9
7,COC(=O)C1=C(c2ccc(Cl)c(C(F)(F)F)c2)C[C@@H]2CC[C@H]1N2C(=O)NCCOc1ccccc1Cl,10.8
8,CC(=O)c1c(C)[nH]c(C(=O)CSc2nc3ccccc3n2C)c1C,8.19
9,O=C(O)CC12CC3CC(C1)CC(n1cncn1)(C3)C2,12.8
10,COc1ccc(C(=O)NCCc2c[nH]c3ccccc23)cc1OC,3.3
11,COC(=O)c1ccc(COc2cccc3c2CCN(Cc2ccccc2)C3=O)o1,2.36
12,O=S(=O)(Nc1ccc(O)c2ccccc12)c1cccs1,4.77
13,CCOC(=O)C1CCCCC12C(C#N)=C(N)Oc1n[nH]c(C)c12 (stereo not shown),12.5
14,CC(=O)Nc1ccc(NC(=O)C(C)OC(=O)c2oc3ccccc3c2C)cc1 (stereo not shown),-48.6
15,CC(C)CC(=O)Nc1nnc(S(=O)(=O)N2c3ccccc3CC2C)s1 (stereo not shown),8.89
16,CCCCn1c(N)c(N(CCC(C)C)C(=O)c2ccc(C)o2)c(=O)[nH]c1=O,11
17,Cc1ccc(-c2nnn(CC(=O)N(c3cccc(F)c3)C(C(=O)NC(C)(C)C)c3ccco3)n2)o1 (stereo not shown),22.2
18,COCCN(C(=O)CSc1ncccn1)c1c(N)n(Cc2ccccc2)c(=O)[nH]c1=O,10.6
